Results published in the supplement of paper PMC7726561.
Over roughly 1,400 sequences, “thermal melting temperature (Tm) of peptide-HLA complex” has its median near 60; the lowest 2% begin near 45. The list shows a part of the results.

B1: unnamed (peptide)
chain: HPRSPNVLSV
B2: unnamed (peptide)
chain: FPEALRLAL
B3: unnamed (peptide)
chain: SPLKGLSL
B4: unnamed (peptide)
chain: LPKSPPYTAF
B5: unnamed (peptide)
chain: APSQQRLVVV
B6: unnamed (peptide)
chain: MPRQPSATRL
B7: unnamed (peptide)
chain: VPNAGRGLV
B8: unnamed (peptide)
chain: LPKDQGITL
B9: unnamed (peptide)
chain: RPQPQTLQL
B10: unnamed (peptide)
chain: IFSEVPVQL
B11: unnamed (peptide)
chain: KPKFILSVL
B12: unnamed (peptide)
chain: APRELGLGLGL
B13: unnamed (peptide)
chain: APRPSIPV
B14: unnamed (peptide)
chain: NPRIPYTEL
B15: unnamed (peptide)
chain: RPDGFLLVL
B16: unnamed (peptide)
chain: RPTLEGREL
B17: unnamed (peptide)
chain: RPDDRSQGAII
B18: unnamed (peptide)
chain: YPNGFRDVL
B19: unnamed (peptide)
chain: SPVFRLETL
B20: unnamed (peptide)
chain: TPRSYVGVTL
B21: unnamed (peptide)
chain: TPEEVRLPL
B22: unnamed (peptide)
chain: RPQLKGVVL
B23: unnamed (peptide)
chain: APQRVRVTL
B24: unnamed (peptide)
chain: IPSGIRSLEEL
B25: unnamed (peptide)
chain: LVMAPRTVL
B26: unnamed (peptide)
chain: LPHEVDKSEL
B27: unnamed (peptide)
chain: SPYPQELTTL
B28: unnamed (peptide)
chain: IPGARPVL
B29: unnamed (peptide)
chain: IPRDPSQQEL
B30: unnamed (peptide)
chain: LPSGFRKFL
B31: unnamed (peptide)
chain: QPEWLRAEV
B32: unnamed (peptide)
chain: KPVSVAISL
B33: unnamed (peptide)
chain: SPAVERLISSL
B34: unnamed (peptide)
chain: LPRTIFPTSTI
B35: unnamed (peptide)
chain: QPMASFARDLL
B36: unnamed (peptide)
chain: APASAAWRSVL
B37: unnamed (peptide)
chain: TPRTNNIEL
B38: unnamed (peptide)
chain: SPYGSDRLVQL
B39: unnamed (peptide)
chain: SPNLRLLDL
B40: unnamed (peptide)
chain: RPPNYSGTIAL
B41: unnamed (peptide)
chain: LPRIQSTAL
B42: unnamed (peptide)
chain: SPIGRDGKL
B43: unnamed (peptide)
chain: QPRFAPVLI
B44: unnamed (peptide)
chain: TPNDRFILL
B45: unnamed (peptide)
chain: APRWVLSQV
B46: unnamed (peptide)
chain: SPPLPFLSL
B47: unnamed (peptide)
chain: IPRPDGIEW
B48: unnamed (peptide)
chain: APRELGLGL
B49: unnamed (peptide)
chain: SPYPTKTQTM
B50: unnamed (peptide)
chain: APRVPVQAL
B51: unnamed (peptide)
chain: KPKDPLKISL
B52: unnamed (peptide)
chain: QPMDIHVEL
B53: unnamed (peptide)
chain: APSPRPLSL
B54: unnamed (peptide)
chain: AVDPNRAVPL
B55: unnamed (peptide)
chain: SPALGLRGL
B56: unnamed (peptide)
chain: SPSPINSSQAL

molecular target: HLA-B*07:02; assay: thermal melting temperature (Tm) of peptide-HLA complex; higher = more thermostable pHLA complex; conditions: C1R-B*07:02
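Further: cell lysates heated 10 min at 37–73 °C, remaining pHLA pulled down with pan-class I antibody, peptides quantified by DIA-MS versus 37 °C, Tm where half the complex is lost.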

Q: For B1, which thermal melting temperature is on record?
A: 57.6 °C

Q: Which thermal melting temperature does the source give for B2 here?
A: 62.7 °C

Q: With B3 as the sequence, how does the thermal melting temperature read?
A: 57.7 °C

Q: For B4, which thermal melting temperature is on record?
A: 63.5 °C

Q: With B5 as the sequence, how does the thermal melting temperature read?
A: 61.4 °C

Q: Which thermal melting temperature does the source give for B6 here?
A: 54.7 °C

Q: B7 was tested. Which thermal melting temperature did it give?
A: 58.5 °C

Q: How did the thermal melting temperature turn out when B8 was run?
A: 61.7 °C

Q: With B9 as the sequence, how does the thermal melting temperature read?
A: 56.6 °C

Q: For B10, which thermal melting temperature is on record?
A: 42.1 °C

Q: For B11, which thermal melting temperature is on record?
A: 62.7 °C

Q: With B12 as the sequence, how does the thermal melting temperature read?
A: 62.5 °C

Q: For B13, which thermal melting temperature is on record?
A: 61.8 °C

Q: With B14 as the sequence, how does the thermal melting temperature read?
A: 61.4 °C

Q: For B15, which thermal melting temperature is on record?
A: 61.1 °C

Q: How did the thermal melting temperature turn out when B16 was run?
A: 56.1 °C

Q: With B17 as the sequence, how does the thermal melting temperature read?
A: 50.1 °C

Q: For B18, which thermal melting temperature is on record?
A: 64.2 °C

Q: Which thermal melting temperature does the source give for B19 here?
A: 62.6 °C

Q: Which thermal melting temperature does the source give for B20 here?
A: 62.9 °C

Q: With B21 as the sequence, how does the thermal melting temperature read?
A: 62.1 °C

Q: B22 was tested. Which thermal melting temperature did it give?
A: 61.1 °C

Q: With B23 as the sequence, how does the thermal melting temperature read?
A: 56.8 °C

Q: B24 was tested. Which thermal melting temperature did it give?
A: 61.6 °C

Q: B25 was tested. Which thermal melting temperature did it give?
A: 60 °C

Q: With B26 as the sequence, how does the thermal melting temperature read?
A: 44.8 °C

Q: With B27 as the sequence, how does the thermal melting temperature read?
A: 60.1 °C

Q: For B28, which thermal melting temperature is on record?
A: 60.2 °C

Q: With B29 as the sequence, how does the thermal melting temperature read?
A: 58.5 °C

Q: Which thermal melting temperature does the source give for B30 here?
A: 60.4 °C

Q: How did the thermal melting temperature turn out when B31 was run?
A: 59.2 °C

Q: For B32, which thermal melting temperature is on record?
A: 61.8 °C

Q: Which thermal melting temperature does the source give for B33 here?
A: 63.3 °C

Q: How did the thermal melting temperature turn out when B34 was run?
A: 62.8 °C

Q: How did the thermal melting temperature turn out when B35 was run?
A: 61.4 °C

Q: With B36 as the sequence, how does the thermal melting temperature read?
A: 63.1 °C

Q: For B37, which thermal melting temperature is on record?
A: 58.2 °C

Q: Which thermal melting temperature does the source give for B38 here?
A: 58.5 °C

Q: With B39 as the sequence, how does the thermal melting temperature read?
A: 63.4 °C

Q: B40 was tested. Which thermal melting temperature did it give?
A: 58.4 °C

Q: With B41 as the sequence, how does the thermal melting temperature read?
A: 64.2 °C

Q: How did the thermal melting temperature turn out when B42 was run?
A: 55.8 °C

Q: B43 was tested. Which thermal melting temperature did it give?
A: 61.1 °C

Q: For B44, which thermal melting temperature is on record?
A: 60.4 °C

Q: Which thermal melting temperature does the source give for B45 here?
A: 62.4 °C

Q: B46 was tested. Which thermal melting temperature did it give?
A: 61.8 °C

Q: How did the thermal melting temperature turn out when B47 was run?
A: 58.4 °C

Q: With B48 as the sequence, how does the thermal melting temperature read?
A: 62.5 °C

Q: How did the thermal melting temperature turn out when B49 was run?
A: 54 °C

Q: For B50, which thermal melting temperature is on record?
A: 66.6 °C

Q: B51 was tested. Which thermal melting temperature did it give?
A: 60.2 °C

Q: With B52 as the sequence, how does the thermal melting temperature read?
A: 60.8 °C

Q: B53 was tested. Which thermal melting temperature did it give?
A: 61.4 °C

Q: Which thermal melting temperature does the source give for B54 here?
A: 60.5 °C

Q: Which thermal melting temperature does the source give for B55 here?
A: 55.1 °C

Q: B56 was tested. Which thermal melting temperature did it give?
A: 54.3 °C
